Screen size: about 110,000 compounds; about 230 (0.21%) showed an effect of 50% or more. This is one part of the list.
biological target: DPAP1 (Plasmodium falciparum, UniProt Q8IIJ9); experiment: primary screen, percent inhibition; read by cleavage of a fluorogenic dipeptide substrate; higher = more effect of the substance; set-up: species or system P. falciparum D10 trophozoite lysates; single well
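Note: 30 min substrate incubation versus DMSO and 10 µM JCP410 controls.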

DPAP1, sequence (Q8IIJ9 whole entry, looked up): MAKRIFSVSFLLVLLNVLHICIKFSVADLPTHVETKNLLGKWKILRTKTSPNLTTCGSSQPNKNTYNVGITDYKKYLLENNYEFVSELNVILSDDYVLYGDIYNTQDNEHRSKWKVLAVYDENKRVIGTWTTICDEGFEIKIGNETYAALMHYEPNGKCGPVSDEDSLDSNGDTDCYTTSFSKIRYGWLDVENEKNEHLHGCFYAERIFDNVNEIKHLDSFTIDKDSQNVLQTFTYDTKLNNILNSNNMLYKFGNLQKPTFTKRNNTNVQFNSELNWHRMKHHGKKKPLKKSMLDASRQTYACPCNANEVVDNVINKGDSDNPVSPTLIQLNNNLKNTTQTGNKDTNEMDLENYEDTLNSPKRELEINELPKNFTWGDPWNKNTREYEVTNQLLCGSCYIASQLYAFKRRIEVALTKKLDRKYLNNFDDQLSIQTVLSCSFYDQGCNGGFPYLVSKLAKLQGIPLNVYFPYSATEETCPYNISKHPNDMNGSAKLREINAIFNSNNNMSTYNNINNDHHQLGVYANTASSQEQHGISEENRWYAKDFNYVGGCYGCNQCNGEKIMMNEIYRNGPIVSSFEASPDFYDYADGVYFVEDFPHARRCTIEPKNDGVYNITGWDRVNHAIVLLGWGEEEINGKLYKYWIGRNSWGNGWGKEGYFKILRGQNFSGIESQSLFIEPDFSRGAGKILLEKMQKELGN

Compound	% Inhibition @ 10 uM
CC(CCc1ccccc1)NC(=O)C1CCN(c2ncnc3c2nc2n3CCCCC2)CC1 (stereo not drawn)	1.66%
Cc1c(CC(=O)O)c(=O)oc2cc3occ(C(C)(C)C)c3cc12	-6.29%
O=C(Nc1cccc(O)c1)/C(=C\c1ccsc1)NC(=O)c1ccccc1	1.4%
CC(=O)C1=C(C)NC(SCC(N)=O)=C(C#N)C1c1ccncc1 (stereo not drawn)	-6.6%
Cc1ccc2[nH]c3c(Cl)ncnc3c2c1	-1.6%
CC1=C(C(=O)OCCOc2ccccc2)C(c2ccc(Cl)cc2Cl)CC(=O)N1 (stereo not drawn)	-1.62%
COC(=O)c1c(NC(=O)C(=O)NCCCn2ccnc2C)sc(C)c1C	29.6%
COC(=O)c1c(NC(=O)c2cncc(Br)c2)sc2c1CCC(C)C2 (stereo not drawn)	0.343%
Cc1ccc(/C=C(\C#N)S(=O)(=O)c2ccccc2)o1	7.73%
CNS(=O)(=O)c1cn(CC(=O)NCCc2ccccc2)cc1S(=O)(=O)NC	-2.87%
CC(C)c1ccc(S(=O)(=O)NC(C)c2ccccc2)cc1 (stereo not drawn)	-1.56%
O=C(Cn1ncc2ccsc2c1=O)N1CCC(Cc2ccccc2)CC1	-6.52%
Cc1cccn2cc(CNC(=O)c3ccccc3C(F)(F)F)nc12	3.3%
COc1cc(CCNCc2c(C(=O)O)n(Cc3ccccc3F)c3ccccc23)cc(OC)c1OC	7.44%
CC(C)Oc1cccc(-c2cc(C(=O)Nc3ccncc3)c3ccccc3n2)c1	-3.05%
Cc1c(C)n(Cc2ccccc2)c2ccc(C(=O)NCCCOC(C)C)cc12	-2.65%
Cc1nc2c(-c3ccc(F)cc3)c(C)nn2c(C)c1CCC(=O)NC(C)CCc1ccco1 (stereo not drawn)	1.26%
Cc1sc(NC(=O)c2ccccc2)c(C(c2ccncc2)N2CCOCC2)c1C (stereo not drawn)	0.145%
C=CCn1c(SCC(=O)Nc2ccc3c(c2)OCO3)nc2scc(-c3ccc(C)o3)c2c1=O	5.66%
CCOC(=O)C(NC(=O)/C(=C\c1ccccc1F)NC(=O)c1ccccc1)C(C)C (stereo not drawn)	-0.582%
O=C(Nc1ccc(N2CCOCC2)cc1)c1nc[nH]n1	1.87%
CCC(C)NC(=O)C1CCN(C(=O)c2cc3sccc3n2Cc2ccc(F)cc2)CC1 (stereo not drawn)	-1.58%
Cc1c(CCC(=O)NCc2ccccc2)c(=O)oc2c(C)c(O)ccc12	4.13%
CCOC(=O)c1c(NC(=O)CN2CCCCCC2)sc2c1CCC2	1.42%

Compound	% Inhibition @ 10 uM
Cc1[nH]nc2c1C(c1ccccc1OCc1cccc3ccccc13)C(C#N)=C(N)O2 (stereo not drawn)	5.05%
CCCCC[n+]1cccc(C(=O)N2c3c(O)nc(NC(=O)C(C)C)nc3NC(C)C2C)c1 (stereo not drawn)	-2.8%
CCOC(=O)N1CCC(NC(Cc2ccccc2)c2ccccc2)CC1 (stereo not drawn)	-1.82%
N#CC1=C(N)Oc2[nH]nc(-c3ccccc3)c2C12C(=O)Nc1ccccc12 (stereo not drawn)	2.01%
C=CCn1c(SCc2ccccc2)nc2c1c(=O)[nH]c(=O)n2C	3.05%
COc1ccc(NC(=O)C2=C(C)Nc3nc(-c4cccs4)nn3C2c2ccccc2OC)cc1 (stereo not drawn)	10.8%
CCOc1cccc2c1OC(c1cc(OC)c(OC)c(OC)c1)N1N=C(c3cccnc3)CC21 (stereo not drawn)	-1.46%
CC(=O)N1CCN(Cc2ccccc2)CC1	1.9%
CC(c1ccccc1)c1nnc(NC(=O)c2ccc3c(c2)OCO3)s1 (stereo not drawn)	19.6%
Cc1ccsc1/C=C1/SC(=O)N(CC(=O)N2CCCC2)C1=O	-0.478%
Cn1c(=O)c2c(nc3n(CCO)c(-c4ccc(F)cc4)cn23)n(C)c1=O	5.05%
Cc1ccccc1C(=O)Nc1ccc(S(=O)(=O)Nc2onc(C)c2C)cc1	-0.000375%
O=C(Cn1nnc2ccccc2c1=O)c1ccccc1Cl	-2.05%
COc1ccc(N(C(C)C(=O)Nc2cccc(OC)c2)S(C)(=O)=O)cc1 (stereo not drawn)	-0.185%
Cn1c(=O)c2c(ncn2CC(=O)Nc2nnc(COc3ccc(Cl)cc3)s2)n(C)c1=O	-4%
CN1CCN(C(=O)c2ccc(-c3nn(C)c(=O)c4ccccc34)cc2)CC1	-1.11%
c1ccc(-c2cc(-c3cc(-c4ccccc4)[nH]n3)[nH]n2)cc1	-2.63%
Cc1c(/C=N/NC(N)=S)c2ccccc2n1C	-0.386%
O=C(NCc1ccc(Cl)cc1)C1CC(=O)N(c2ccc(OCC(=O)N3CCCC3)cc2)C1 (stereo not drawn)	-4.14%
Cn1c(C(=O)O)c(CNCCCN2CCC(Cc3ccccc3)CC2)c2ccccc21	-3.21%
COc1ccccc1CCNC(=O)c1nc(-c2ccc(-n3cccc3)cc2)no1	0.895%
Cc1cc(Br)ccc1NC(=O)c1sc2nc(-c3ccncc3)ccc2c1N	-1.22%
CCSc1ncc(Cl)c(C(=O)N(Cc2cccs2)C2CCS(=O)(=O)C2)n1 (stereo not drawn)	-2.85%
Cc1ccc(C2=[N+]([O-])C3(CCCCC3=O)N(O)C2(C)C)o1 (stereo not drawn)	-5.28%

Reference: paper PMC6919601, “Identification of Plasmodium dipeptidyl aminopeptidase allosteric inhibitors by high throughput screening” (PLoS ONE, 2019)
